Data: PubChem BioAssay (NCI)
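In this assay, cells in 96-well plates receive the compound at five concentrations for 48 hours. Endpoints are linearly interpolated between the surrounding concentrations. At the GI50, growth is halved.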 Not every entry of the source has a single result; some have several. Only these are listed. An entry can have further records. For part of these data: Records of one sample usually come from different ranges of test concentrations, which the source does not state; a value can be the end of its range. For part of these data: The values listed for one entry are repeated measurements across runs, samples, wells, individuals or studies. Brackets tell where a record comes from. Letters hold for one entry only.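 TGI: concentration producing complete growth inhibition.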

Key:
Assay in all cases: inhibition of tumour cell growth, NCI panel, 48 h
KM12 colon = system: KM12 colon
NCI-H226 lung = system: NCI-H226 lung
IGROV1 ovarian = system: IGROV1 ovarian
MOLT-4 leukemia = system: MOLT-4 leukemia
SW-620 colon = system: SW-620 colon
NCI-H23 lung = system: NCI-H23 lung
OVCAR-4 ovarian = system: OVCAR-4 ovarian
SR leukemia = system: SR leukemia
HL-60(TB) leukemia = system: HL-60(TB) leukemia
NCI/ADR-RES ovarian = system: NCI/ADR-RES ovarian
EKVX NSCLC = system: EKVX NSCLC
LOX IMVI melanoma = system: LOX IMVI melanoma
OVCAR-5 ovarian = system: OVCAR-5 ovarian
CAKI-1 renal = system: CAKI-1 renal
SF-295 CNS = system: SF-295 CNS
COLO 205 colon = system: COLO 205 colon
786-0 renal = system: 786-0 renal
MCF7 breast = system: MCF7 breast
DU-145 prostate = system: DU-145 prostate
SNB-78 CNS = system: SNB-78 CNS
HS 578T breast = system: HS 578T breast
MDA-N = system: MDA-N
K-562 leukemia = system: K-562 leukemia
RPMI-8226 leukemia = system: RPMI-8226 leukemia

CC(C)=CC(=O)OC1C2C(C)=CC(=O)C(O)C2(C)C2C3(O)OCC24C(CC(=O)OC14)C(C)C3O (stereo not drawn)
TGI (KM12 colon): 62 nM, > 100 µM, 54.7 nM | TGI (NCI-H226 lung): 28.4 nM, 4.82 µM, 40.9 nM | TGI (IGROV1 ovarian): 61.5 nM, > 100 µM, 56.7 nM | TGI (MOLT-4 leukemia): 4.56 nM and 1.47 µM | TGI (SW-620 colon): 115 nM, 1.32 µM, 342 nM | TGI (NCI-H23 lung): 18 nM, 33.9 nM, 431 nM | TGI (OVCAR-4 ovarian): 43.5 nM, 1.59 µM, 56.2 nM | TGI (SR leukemia): 15.2 nM and > 100 µM | TGI (HL-60(TB) leukemia): 7.8 nM and 200 nM | TGI (NCI/ADR-RES ovarian): 304 nM, 60.9 µM, 27.8 µM | GI50 (EKVX NSCLC): 1.11 µM [1 test] and 23.1 nM [mean of 5 tests] | TGI (EKVX NSCLC): 453 nM, 6.35 µM, 78.8 nM | TGI (LOX IMVI melanoma): 6.82 nM and 200 nM | TGI (OVCAR-5 ovarian): 26.8 nM, 79.4 nM, 3.08 µM | TGI (CAKI-1 renal): > 100 µM [1 test] and 792 nM, 1.59 µM [mean of 4 tests]

CN1C2C=CC(=O)C1C(C#N)C2 (stereo not drawn)
GI50 (OVCAR-5 ovarian): 4.18 µM [sample A, 1 test] and > 100 µM [sample B, 1 test] | GI50 (SF-295 CNS): > 100 µM [sample A, 1 test] and 689 nM [sample B, 1 test]

CCS(=O)(=O)c1cccc(-c2cc(C(=O)NC3CCN(C)CC3)c(C)c3[nH]c4ncc(C)cc4c23)c1
TGI (COLO 205 colon): 1.37 µM [sample A, mean of 2 tests] and 119 nM [sample B, mean of 2 tests]

CCCC(=O)Nc1cc(/C=C/C(=O)N2C[C@@H]3C[C@]34C2=CC(=O)c2[nH]cc(C)c24)n(C)c1
TGI (786-0 renal): 2.67 µM and 253 nM | TGI (EKVX NSCLC): 5.77 µM and 561 nM | TGI (LOX IMVI melanoma): 3.62 µM and 212 nM | TGI (OVCAR-5 ovarian): 25 µM and 429 nM | TGI (MCF7 breast): 25 µM and 1.43 µM | TGI (DU-145 prostate): 478 nM and 21.4 µM

Cc1c(-c2ccc(-c3ccccc3F)cc2)nc2ccc(F)cc2c1C(=O)O
TGI (SNB-78 CNS): 304 µM [1 test] and 28.7 µM [mean of 3 tests] | GI50 (HS 578T breast): 134 nM [1 test] and 5.4 µM [mean of 2 tests] | TGI (HS 578T breast): 13.4 µM, 185 µM, 240 µM | TGI (MDA-N): 90.3 µM and 999 µM | GI50 (SR leukemia): 22.7 nM and 500 nM | TGI (SR leukemia): 158 µM and 5 mM | GI50 (HL-60(TB) leukemia): 72.1 nM [1 test] and 1.46 µM [mean of 4 tests] | GI50 (K-562 leukemia): 49.3 nM [1 test] and 889 nM [mean of 4 tests] | TGI (RPMI-8226 leukemia): 80.7 µM, 192 µM, 868 µM
